Measured values taken from paper PMC4336329 (PLoS ONE, 2015).
In all, about 310,000 compounds went through this assay and about 14,000 (4.5%) showed an effect of 50% or more. The effect is printed as a negative number. Some of the results follow. Where a SMILES comes first, the peptide text is derived from it. The star is where a group is joined. Bz = O=C(c1ccccc1)*

Target: human ether-à-go-go-related gene (hERG) potassium channel (human, UniProt Q12809)
Experiment: primary screen, population patch clamp on CHO cells stably expressing hERG
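Also: peak tail current of the secondary pulse compared with the same well before compound.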

Sequence of human ether-à-go-go-related gene (hERG) potassium channel (Q12809 whole entry, looked up): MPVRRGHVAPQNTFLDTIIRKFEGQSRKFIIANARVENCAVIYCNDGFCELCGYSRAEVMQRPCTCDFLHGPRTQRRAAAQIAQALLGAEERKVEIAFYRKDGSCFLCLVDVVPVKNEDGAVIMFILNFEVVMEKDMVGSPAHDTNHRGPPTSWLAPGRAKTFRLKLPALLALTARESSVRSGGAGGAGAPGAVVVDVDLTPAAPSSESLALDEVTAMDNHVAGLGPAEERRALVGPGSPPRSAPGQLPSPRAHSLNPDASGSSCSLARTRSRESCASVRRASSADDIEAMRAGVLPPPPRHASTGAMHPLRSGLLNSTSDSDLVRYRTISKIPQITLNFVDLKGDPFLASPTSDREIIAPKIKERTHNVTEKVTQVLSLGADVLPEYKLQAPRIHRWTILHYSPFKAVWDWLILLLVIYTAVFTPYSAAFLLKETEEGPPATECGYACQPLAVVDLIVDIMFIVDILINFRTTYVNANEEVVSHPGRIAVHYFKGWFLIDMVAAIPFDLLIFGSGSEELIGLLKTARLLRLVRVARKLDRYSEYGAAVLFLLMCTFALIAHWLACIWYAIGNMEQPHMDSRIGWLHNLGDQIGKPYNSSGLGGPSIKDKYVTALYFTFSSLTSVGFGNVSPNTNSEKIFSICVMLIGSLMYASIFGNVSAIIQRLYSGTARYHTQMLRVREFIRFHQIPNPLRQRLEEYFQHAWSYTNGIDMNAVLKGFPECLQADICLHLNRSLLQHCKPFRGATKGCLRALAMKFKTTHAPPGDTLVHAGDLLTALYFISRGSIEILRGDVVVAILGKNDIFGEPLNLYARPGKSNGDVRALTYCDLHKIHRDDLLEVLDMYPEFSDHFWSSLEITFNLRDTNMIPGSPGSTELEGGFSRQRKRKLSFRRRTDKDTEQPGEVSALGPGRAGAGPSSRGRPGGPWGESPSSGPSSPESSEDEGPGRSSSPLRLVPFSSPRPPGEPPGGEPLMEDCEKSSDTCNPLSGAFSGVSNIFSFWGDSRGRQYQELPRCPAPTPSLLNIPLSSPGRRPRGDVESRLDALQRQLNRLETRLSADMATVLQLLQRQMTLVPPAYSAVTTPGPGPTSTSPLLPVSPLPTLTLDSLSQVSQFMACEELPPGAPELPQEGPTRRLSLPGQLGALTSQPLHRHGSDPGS

Compound	hERG current change (%, negative = inhibition) at 10uM [%]
CS(=O)(=O)c1ccc(CNC(=O)C2(C(F)(F)F)CC(CCCO)CCCO2)cc1 (stereo not shown)	3.57
Cc1ccc(-n2c(SCC(=O)Nc3nccs3)nc3c(c2=O)SCC3)cc1	0.0407
COc1ccc(N2CC(C(=O)NCCN3C(=O)S/C(=C\c4cccnc4)C3=O)CC2=O)c(OC)c1 (stereo not shown)	3.67
COc1ccc(OC)c(NC(=O)NNC(=O)COc2ccc(F)cc2F)c1	30.3
CCOC(=O)c1ccc(NC(=O)COc2cc3oc(=O)c(CC(C)O)c(C)c3cc2Cl)cc1 (stereo not shown)	13.7
Cc1c(Cl)cccc1NC(=O)Cn1c(CCC(=O)O)ccc1-c1ccccc1	12.2
COC(=O)c1[nH]c2cccc(C)c2c1NC(=O)CN1CCN(C(=O)c2ccco2)CC1	-16.9
COc1ccc(-c2cc(-c3nnc(COC(=O)CC4CC5CCC4C5)o3)c3ccccc3n2)cc1OC (stereo not shown)	1.44
CC(C)c1ccc(NC2CCCN(C(=O)c3cccnc3)C2)cc1 (stereo not shown)	0.148
CCCNc1nc(OC)nc(N2CC3CC(C2)c2cccc(=O)n2C3)n1 (stereo not shown)	-5.8
CCCCCOC(=O)c1ccccc1C(=O)O	16.1
CCCc1nn(C)c2c(=O)[nH]c(-c3cc(S(=O)(=O)Nc4ccc(NC(C)=O)cc4)ccc3OCC)nc12	-21.2
Nc1cc2c(cc1C(=O)c1ccccc1)OCCO2	-14.6
CCN(CC(=O)Nc1ccc(NC(C)=O)cc1)C(=O)C(c1ccccc1)c1ccccc1	-10.5
O=C(CSc1nnnn1-c1ccccc1)N1CCNC1=O	9.9
Cc1cc(=O)c2cc(C(=O)c3ccccc3)ccc2[nH]1	-4.4
O=C(COC(=O)Cc1ccc(S(=O)(=O)N2CCOCC2)s1)Nc1ccc([N+](=O)[O-])cc1	-22.3
COC(=O)C(c1ccccc1)C(C(=O)OC)c1ccccc1 (stereo not shown)	-2.36
CCOC(=O)/C(C#N)=C/c1cc2ccccc2nc1N1CCCCC1	9.91
CC1CCC/C(=N/Nc2nc3ccccc3s2)C1 (stereo not shown)	2.63
Fc1cccc(F)c1CN1CCN(Cc2c(F)cccc2F)CC1	2.57
O=C(COc1ccccc1C(=O)NCC1CCCO1)Nc1ccc(Cl)cc1Cl (stereo not shown)	-14

Compound	hERG current change (%, negative = inhibition) at 10uM [%]
N/C(=N\N=C\c1ccc(O)c(O)c1)c1nonc1N	6.07
CCOc1ccc2oc(C(=O)OCC(=O)NCc3ccc(OC)cc3)c(C)c2c1	-1.21
O=C(CNC(=S)N(CCCN1CCOCC1)Cc1cccs1)N1CCOCC1	-9.74
COc1ccc(C2=NCC(=O)N(CC(=O)NCc3ccco3)c3sc4c(c32)CCCC4)cc1	-35.7
COc1ccc2c(c1OC)c(=O)n1c3ccc(OC(C)C(=O)NCCCN4CCOCC4)cc3c3ccnc2c31 (stereo not shown)	10.4
CCOC(=O)C1=C(C)C(c2ccc(OC)cc2OC)NC(=O)N1 (stereo not shown)	6.42
CCn1c(CC(=O)Nc2ccccc2Cl)nnc1SCC(=O)NC1CCCC1	4.47
CCCCn1c(N)c(N(CCOC)C(=O)COC(=O)COc2ccccc2C#N)c(=O)[nH]c1=O	-2.37
CC(C)N1C(=O)CCC1C(=O)N1CCC2(CC1)OCCO2 (stereo not shown)	-0.0126
Cc1cc(NC(=O)Nc2ccc(Cl)cc2)n(C)n1	5.81
O=C(NNS(=O)(=O)c1ccccc1F)c1ccccc1-n1cccc1	9.46
CCCC(C)NC(=O)C1CCN(S(=O)(=O)c2ccccc2)CC1 (stereo not shown)	-12
Cn1c(=O)c2c(nc(N3CCOCC3)n2Cc2c(F)cccc2Cl)n(C)c1=O	0.434
Cc1ccc(C)c(N(Cc2cc3ccc(C)cc3[nH]c2=O)C(=O)c2ccco2)c1	-15.4
COc1c(Cl)ccc(Cl)c1C(=O)NC(=O)N1CCOCC1	-15.7
Cc1ccc(-n2cc(CNC(C)c3cnn(C)c3)c(-c3ccc(F)cc3)n2)cc1 (stereo not shown)	-40
COc1ccc(/C=N/OCc2ccc(Br)cc2)c(OC)c1	13.8
CN(C(=O)c1cc(-c2ccc3c(c2)OCO3)on1)c1ccccc1	1.76
CCNC(=O)CCSc1nc(C)cc(C)n1	3.55
COc1ccccc1CN(C)C(=O)c1cc(C)nc2ccccc12	-65.1
COc1cc(/C=C/C(=O)NCC2CCCCC2)cc(OC)c1OC	23.6
CCn1nnnc1-c1ccc(OC)c(S(=O)(=O)Nc2ccc(C)c(C)c2)c1	-2.9

Compound	hERG current change (%, negative = inhibition) at 10uM [%]
O=C(Nc1nnc(Cc2ccc(Cl)cc2)s1)c1ccco1	4.13
O=C1C(=O)N(c2cccc(Cl)c2)C(c2ccccc2[N+](=O)[O-])/C1=C(\O)c1ccccc1 (stereo not shown)	5.26
Cc1ccc(C(=O)NCCc2nnc3ccc(SCC(=O)Nc4ccc(C)cc4C)nn23)cc1	-17.5
O=C(NCCNC1CCN(Cc2ccccc2)CC1)c1cccs1	-15.2
O=C(O)c1[nH]c2ccccc2c1NS(=O)(=O)c1ccc(F)cc1	15.2
Cc1cccc([C@@H]2[C@@H]3C(=O)N(Cc4ccccc4)C(=O)[C@@H]3[C@]3(CC(C)C)C(=O)N(c4cccc(Cl)c4)C(=O)N23)c1	4.4
Cc1ccc(F)cc1NC(=O)Cc1nn(C)c(=O)c2ccccc12	8.8
Nc1nnc(CSCc2ccccc2Cl)s1	19
COc1ccc(-c2csc(NC(=S)NC(=O)/C=C/c3ccco3)n2)cc1OC	-5.17
COc1ccc(/C=C/c2nc(S(=O)(=O)c3ccccc3)c(N(C)C)o2)cc1OC	-1.03
CCn1ncc(NC(=S)NCCc2ccc(OC)c(OC)c2)c1C(N)=O	16.1
O=C(Nc1cccc(N=Cc2cc(Br)cc(Br)c2O)c1)c1ccco1	3.77
Nc1ccc(C(=O)O)c(O)c1.Nc1ccc(C(=O)O)c(O)c1	3.38
CCn1cc(C(=O)O)c(=O)c2ccc(C)nc21	14.8
O=C(CCNc1n[nH]c(=O)[nH]c1=O)N/N=C/c1ccc(C(F)(F)F)cc1	24
O=C(c1ccc2c(=O)n(Cc3ccc(Cl)cc3)c(=S)[nH]c2c1)N1CCCC1	26
Cc1c(C)c(C)c(S(=O)(=O)NCCc2ccccn2)c(C)c1C	-7.95
COC(=O)c1sc2ncccc2c1OCc1cccc(Cl)c1	18.3
O=C(COC(=O)c1ccc(S(=O)(=O)N2CCOCC2)cc1)Nc1nc(-c2ccccc2)cs1	-15.8
COc1cccc(Cn2c(=O)oc3ccccc32)c1	4.3
Cc1cccc(C)c1NC(=O)C(C)N1CCCC1 (stereo not shown)	5.02
Cc1noc(C)c1C(=O)OCC(=O)NCCC1=CCCCC1	2.18

Compound	hERG current change (%, negative = inhibition) at 10uM [%]
COc1ccc(CCNC(=O)CS(=O)Cc2nc(-c3ccc(C)cc3)oc2C)cc1OC (stereo not shown)	-10.9
COc1ccccc1-c1c(C)nn2c(N3CCCCCC3)cc(C)nc12	-8.02
O=c1[nH]n(-c2ccccc2)c(=O)c2ccccc12	18.6
COc1ccc(C(=O)N/C(=C\c2cn(S(=O)(=O)N(C)C)c3ccccc23)C(=O)N2CCOCC2)cc1	-47
CCn1c(SCC(=O)Nc2cccc(C)c2)nc2nc3c(cc2c1=O)COC(C)(C)C3	-23.1
O=C(OCc1c(-c2ccccc2)ncc2ccccc12)c1ccc(Cl)cc1Cl	3.51
CCCCOc1nc(N)nc(-c2ccccc2)n1	1.22
CCCCCc1nc2sc3c(c2c(=O)n1NC(=O)c1ccc([N+](=O)[O-])cc1)CC(C)(C)OC3	-29.2
CC(=O)c1cccc(NS(=O)(=O)c2ccc3c(c2)N(C(C)=O)CCO3)c1	13.7
Cc1cc(C)c(C)c(S(=O)(=O)N2CCN(c3ncnc4ccccc34)CC2)c1C	-4.67
CN(C)CCCOC(=O)C1c2ccccc2Oc2ccccc21.Cl	-7.6
COc1ccc2oc(CS(=O)c3ccccc3)c(C(=O)O)c2c1 (stereo not shown)	16.8
COc1ccc(CCNC(=O)CS(=O)(=O)c2cn(CC(=O)N3CCOCC3)c3ccccc23)cc1OC	6.4
CCCCCC(=O)Nc1nc(C)c(-c2csc(Nc3ccccc3OCC)n2)s1	4.35
COC(=O)c1cc(C(=O)c2cc(Cl)ccc2O)coc1=N	-14.3
O=C(NCCc1ccc(Cl)cc1)c1cccc(N2CCCC2=O)c1	-46.3
COC(=O)C(NC(=O)C(NC(=O)c1ccccc1)C(C)C)C(C)C (stereo not drawn) (Bz-Val-Val-OMe; configuration not given here)	1.63
O=C(O)c1ccc(C2SCC(=O)N2Cc2ccco2)cc1 (stereo not shown)	5.14
CCCC(=O)C1=C(O)C(C(=O)OC)C(C)(C)CC1=Nc1ccccc1 (stereo not shown)	-12
